# According to publication PMC12820563:
# This is one part of the list. The list includes weakly bound sequences.
# Biological target: T1, MBP-FoxP3dN (UniProt Q99JB6)
# T1 sequence: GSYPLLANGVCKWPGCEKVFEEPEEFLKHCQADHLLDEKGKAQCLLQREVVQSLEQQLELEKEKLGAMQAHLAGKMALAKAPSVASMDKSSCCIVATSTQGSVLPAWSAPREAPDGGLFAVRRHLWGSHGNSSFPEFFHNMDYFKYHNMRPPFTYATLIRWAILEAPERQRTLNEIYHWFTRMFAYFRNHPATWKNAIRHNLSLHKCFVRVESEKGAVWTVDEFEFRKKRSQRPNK
# Assay: PD-seq (MBP pull-down with sequencing)
# Details: 20 mM Tris-HCl pH 7.5, 100 mM NaCl, 1.5 mM MgCl2, 0.4 uM protein, 0.1 uM dsDNA library, 30 min, room temperature, amylose pull-down; high values mean tight binding; double strand, one strand shown
row,Sequence,binding signal (RPM ratio (pull-down/input))
1,GATGATTGTTCTCCCAGCTGATGAATTATTGTCCTCGAGTAAACAAATTTTCCTAATCTTTCTGTTCAAGCGCCATCTAC,1.44
2,GATGATTGTTCTCCCAGCTGATGAATTTTCTCTTTCGAGTAAACAAATTTTCCTAATCTTTCTGTTCAAGCGCCATCTAC,0.236
3,GATGATTGTTCTCCCAGCTGATGAATTGATTAGCTCGAGTAAACAAATTTTCCTAATCTTTCTGTTCAAGCGCCATCTAC,0.866
4,GATGATTGTTCTCCCAGCTGATGAATTGCTGCCCTCGAGTAAACAAATTTTCCTAATCTTTCTGTTCAAGCGCCATCTAC,0.709
5,GATGATTGTTCTCCCAGCTGATGAATTCAGGCTGTCGAGTAAACAAATTTTCCTAATCTTTCTGTTCAAGCGCCATCTAC,0.392
6,GATGATTGTTCTCCCAGCTGATGAATTAAGCTACTCGAGTAAACAAATTTTCCTAATCTTTCTGTTCAAGCGCCATCTAC,1.44
7,GATGATTGTTCTCCCAGCTGATGAATTCGCGCGATCGAGTAAACAAATTTTCCTAATCTTTCTGTTCAAGCGCCATCTAC,0.673
8,GATGATTGTTCTCCCAGCTGATGAATTCCCGATATCGAGTAAACAAATTTTCCTAATCTTTCTGTTCAAGCGCCATCTAC,0.303
9,GATGATTGTTCTCCCAGCTGATGAATTTATAATATCGAGTAAACAAATTTTCCTAATCTTTCTGTTCAAGCGCCATCTAC,0.602
10,GATGATTGTTCTCCCAGCTGATGAATTGCTTTCGTCGAGTAAACAAATTTTCCTAATCTTTCTGTTCAAGCGCCATCTAC,1.16
11,GATGATTGTTCTCCCAGCTGATGAATTAAAAGTGTCGAGTAAACAAATTTTCCTAATCTTTCTGTTCAAGCGCCATCTAC,0.337
12,GATGATTGTTCTCCCAGCTGATGAATTGCTCCGCTCGAGTAAACAAATTTTCCTAATCTTTCTGTTCAAGCGCCATCTAC,0.38
13,GATGATTGTTCTCCCAGCTGATGAATTCCACCATTCGAGTAAACAAATTTTCCTAATCTTTCTGTTCAAGCGCCATCTAC,0.451
14,GATGATTGTTCTCCCAGCTGATGAATTGGGCAGATCGAGTAAACAAATTTTCCTAATCTTTCTGTTCAAGCGCCATCTAC,0.328
15,GATGATTGTTCTCCCAGCTGATGAATTGCTACGTTCGAGTAAACAAATTTTCCTAATCTTTCTGTTCAAGCGCCATCTAC,0.707
16,GATGATTGTTCTCCCAGCTGATGAATTAGGGTGCTCGAGTAAACAAATTTTCCTAATCTTTCTGTTCAAGCGCCATCTAC,0.532
17,GATGATTGTTCTCCCAGCTGATGAATTTAAAGTGTCGAGTAAACAAATTTTCCTAATCTTTCTGTTCAAGCGCCATCTAC,0.436
18,GATGATTGTTCTCCCAGCTGATGAATTGCTACCTTCGAGTAAACAAATTTTCCTAATCTTTCTGTTCAAGCGCCATCTAC,0.702
19,GATGATTGTTCTCCCAGCTGATGAATTGATCGTTTCGAGTAAACAAATTTTCCTAATCTTTCTGTTCAAGCGCCATCTAC,0.653
20,GATGATTGTTCTCCCAGCTGATGAATTTGTTTGGTCGAGTAAACAAATTTTCCTAATCTTTCTGTTCAAGCGCCATCTAC,7.49
21,GATGATTGTTCTCCCAGCTGATGAATTCCTTTCCTCGAGTAAACAAATTTTCCTAATCTTTCTGTTCAAGCGCCATCTAC,0.29

row,Sequence,binding signal (RPM ratio (pull-down/input))
1,GATGATTGTTCTCCCAGCTGATGAATTGACGTTTTCGAGTAAACAAATTTTCCTAATCTTTCTGTTCAAGCGCCATCTAC,0.643
2,GATGATTGTTCTCCCAGCTGATGAATTTCAACTATCGAGTAAACAAATTTTCCTAATCTTTCTGTTCAAGCGCCATCTAC,0.519
3,GATGATTGTTCTCCCAGCTGATGAATTTACCGACTCGAGTAAACAAATTTTCCTAATCTTTCTGTTCAAGCGCCATCTAC,0.395
4,GATGATTGTTCTCCCAGCTGATGAATTATCCCTATCGAGTAAACAAATTTTCCTAATCTTTCTGTTCAAGCGCCATCTAC,0.338
5,GATGATTGTTCTCCCAGCTGATGAATTTATGCACTCGAGTAAACAAATTTTCCTAATCTTTCTGTTCAAGCGCCATCTAC,1.69
6,GATGATTGTTCTCCCAGCTGATGAATTACAAATATCGAGTAAACAAATTTTCCTAATCTTTCTGTTCAAGCGCCATCTAC,1.43
7,GATGATTGTTCTCCCAGCTGATGAATTTCCCGTATCGAGTAAACAAATTTTCCTAATCTTTCTGTTCAAGCGCCATCTAC,0.366
8,GATGATTGTTCTCCCAGCTGATGAATTATTAGCGTCGAGTAAACAAATTTTCCTAATCTTTCTGTTCAAGCGCCATCTAC,0.786
9,GATGATTGTTCTCCCAGCTGATGAATTGTGATGTTCGAGTAAACAAATTTTCCTAATCTTTCTGTTCAAGCGCCATCTAC,4.21
10,GATGATTGTTCTCCCAGCTGATGAATTAGGATATTCGAGTAAACAAATTTTCCTAATCTTTCTGTTCAAGCGCCATCTAC,0.717
11,GATGATTGTTCTCCCAGCTGATGAATTACTCAATTCGAGTAAACAAATTTTCCTAATCTTTCTGTTCAAGCGCCATCTAC,0.357
12,GATGATTGTTCTCCCAGCTGATGAATTGATCCGATCGAGTAAACAAATTTTCCTAATCTTTCTGTTCAAGCGCCATCTAC,0.203
13,GATGATTGTTCTCCCAGCTGATGAATTTTTACCGTCGAGTAAACAAATTTTCCTAATCTTTCTGTTCAAGCGCCATCTAC,0.214
14,GATGATTGTTCTCCCAGCTGATGAATTAGGATCATCGAGTAAACAAATTTTCCTAATCTTTCTGTTCAAGCGCCATCTAC,0.453
15,GATGATTGTTCTCCCAGCTGATGAATTGCATTCTTCGAGTAAACAAATTTTCCTAATCTTTCTGTTCAAGCGCCATCTAC,4.62
16,GATGATTGTTCTCCCAGCTGATGAATTTCGAACTTCGAGTAAACAAATTTTCCTAATCTTTCTGTTCAAGCGCCATCTAC,0.301
17,GATGATTGTTCTCCCAGCTGATGAATTCAACTCCTCGAGTAAACAAATTTTCCTAATCTTTCTGTTCAAGCGCCATCTAC,0.287
18,GATGATTGTTCTCCCAGCTGATGAATTTTTTACCTCGAGTAAACAAATTTTCCTAATCTTTCTGTTCAAGCGCCATCTAC,0.228
19,GATGATTGTTCTCCCAGCTGATGAATTTATAGGTTCGAGTAAACAAATTTTCCTAATCTTTCTGTTCAAGCGCCATCTAC,0.956
20,GATGATTGTTCTCCCAGCTGATGAATTGAAAATATCGAGTAAACAAATTTTCCTAATCTTTCTGTTCAAGCGCCATCTAC,0.506
21,GATGATTGTTCTCCCAGCTGATGAATTATCCATCTCGAGTAAACAAATTTTCCTAATCTTTCTGTTCAAGCGCCATCTAC,0.37

row,Sequence,binding signal (RPM ratio (pull-down/input))
1,GATGATTGTTCTCCCAGCTGATGAATTCCTCGTCTCGAGTAAACAAATTTTCCTAATCTTTCTGTTCAAGCGCCATCTAC,0.283
2,GATGATTGTTCTCCCAGCTGATGAATTCCGACGGTCGAGTAAACAAATTTTCCTAATCTTTCTGTTCAAGCGCCATCTAC,0.238
3,GATGATTGTTCTCCCAGCTGATGAATTAATCCCATCGAGTAAACAAATTTTCCTAATCTTTCTGTTCAAGCGCCATCTAC,0.282
4,GATGATTGTTCTCCCAGCTGATGAATTGTCTGCATCGAGTAAACAAATTTTCCTAATCTTTCTGTTCAAGCGCCATCTAC,1.06
5,GATGATTGTTCTCCCAGCTGATGAATTGAGTGTATCGAGTAAACAAATTTTCCTAATCTTTCTGTTCAAGCGCCATCTAC,1.89
6,GATGATTGTTCTCCCAGCTGATGAATTCGCCGGTTCGAGTAAACAAATTTTCCTAATCTTTCTGTTCAAGCGCCATCTAC,0.297
7,GATGATTGTTCTCCCAGCTGATGAATTTGTGGGGTCGAGTAAACAAATTTTCCTAATCTTTCTGTTCAAGCGCCATCTAC,4.93
8,GATGATTGTTCTCCCAGCTGATGAATTCATCTCATCGAGTAAACAAATTTTCCTAATCTTTCTGTTCAAGCGCCATCTAC,0.393
9,GATGATTGTTCTCCCAGCTGATGAATTTGATCTTTCGAGTAAACAAATTTTCCTAATCTTTCTGTTCAAGCGCCATCTAC,0.319
10,GATGATTGTTCTCCCAGCTGATGAATTACACTCTTCGAGTAAACAAATTTTCCTAATCTTTCTGTTCAAGCGCCATCTAC,0.619
11,GATGATTGTTCTCCCAGCTGATGAATTTTATCCGTCGAGTAAACAAATTTTCCTAATCTTTCTGTTCAAGCGCCATCTAC,0.336
12,GATGATTGTTCTCCCAGCTGATGAATTCGTCCGGTCGAGTAAACAAATTTTCCTAATCTTTCTGTTCAAGCGCCATCTAC,0.264
13,GATGATTGTTCTCCCAGCTGATGAATTAGGGACATCGAGTAAACAAATTTTCCTAATCTTTCTGTTCAAGCGCCATCTAC,0.55
14,GATGATTGTTCTCCCAGCTGATGAATTGAAGAGATCGAGTAAACAAATTTTCCTAATCTTTCTGTTCAAGCGCCATCTAC,0.222
15,GATGATTGTTCTCCCAGCTGATGAATTTTGCGACTCGAGTAAACAAATTTTCCTAATCTTTCTGTTCAAGCGCCATCTAC,3.17
16,GATGATTGTTCTCCCAGCTGATGAATTAAATTCATCGAGTAAACAAATTTTCCTAATCTTTCTGTTCAAGCGCCATCTAC,0.395
17,GATGATTGTTCTCCCAGCTGATGAATTCTCATCCTCGAGTAAACAAATTTTCCTAATCTTTCTGTTCAAGCGCCATCTAC,0.287
18,GATGATTGTTCTCCCAGCTGATGAATTAGGTGTTTCGAGTAAACAAATTTTCCTAATCTTTCTGTTCAAGCGCCATCTAC,1.7
19,GATGATTGTTCTCCCAGCTGATGAATTAGCGCGATCGAGTAAACAAATTTTCCTAATCTTTCTGTTCAAGCGCCATCTAC,0.657
20,GATGATTGTTCTCCCAGCTGATGAATTCTGACCTTCGAGTAAACAAATTTTCCTAATCTTTCTGTTCAAGCGCCATCTAC,0.344
21,GATGATTGTTCTCCCAGCTGATGAATTGACGTCCTCGAGTAAACAAATTTTCCTAATCTTTCTGTTCAAGCGCCATCTAC,0.48
